Experimental data: patent US20210115143A1 (R PHARM OVERSEAS, published 2021)

Columns and labels:
[1] = target: human PD-L1 on primary human cells in the dendritic cell / CD4+ T cell mixed lymphocyte reaction (human, UniProt Q9NZQ7); assay: cell-based or functional assay
[2] = target: T1, PD-L1-Fc, human IgG Fc fusion protein, human recombinant, HEK293-derived, Phe19-Thr239 (R&D systems Cat … (human, UniProt Q9NZQ7 fragment)); assay: SPR (Reichert), PD-L1-Fc immobilized, antibody in solution, 1:1 model, 25 C
T1 construct: range 19-239; also called PD-L1-Fc fusion protein; dimeric PD-L1-Fc; not shown: human IgG Fc of the bought fusion protein

[3] = target: T1, PD-L1-Fc, human IgG Fc fusion protein, …; assay: SPR (Reichert), antibody immobilized directly, PD-L1-Fc in solution, 1:1 model, 25 C
[4] = target: T2, PD-L1-His tagged, human recombinant, HEK293-derived, Phe19-Thr239 (R&D systems Cat #9049-B7-100) (human, UniProt Q9NZQ7 fragment); assay: SPR (Reichert), antibody immobilized directly, PD-L1-His in solution, 1:1 model, 25 C
T2 construct: range 19-239; also called PD-L1-His ligand; monomeric PD-L1; not shown: His tag

[5] = target: T2, PD-L1-His tagged, human recombinant, …; assay: SPR (Reichert), antibody captured by immobilized anti-human IgG, PD-L1-His in solution, 1:1 model, 25 C

B1: B60-55-1 antibody (variant of B60-55) (antibody, human IgG1, kappa, N297A)
heavy: QVQLVQSGAEVKKPASSVKVSCTASGGSFSTYAISWVRQAPGQGLEWMGGIIPIFGTTKYAQRFQGRVTITADESTTTAYMELSSLISDDTALYYCTTSRGFNYGWFDYWGQGTLVTVSSASTKGPSVFPLAPSSKSTSGGTAALGCLVKDYFPEPVTVSWNSGALTSGVHTFPAVLQSSGLYSLSSVVTVPSSSLGTQTYICNVNHKPSNTKVDKKV[sequence of human IgG1 Fc with changes not given]
light: EIVMTQSPATLSLSPGERATLSCRASQSVGIHLAWYQQKPGQAPRLLIYGASSRATGIPDRFSGSGSGTDFTLTISRLEPEDFAVYYCQQYGSLPRTFGQGTKVEIKRTVAAPSVFIFPPSDEQLKSGTASVVCLLNNFYPREAKVQWKVDNALQSGNSQESVTEQDSKDSTYSLSSTLTLSKADYEKHKVYACEVTHQGLSSPVTKSFNRGEC
notes: also called B50-55-1 [sic]
In the case of B1, the “EC50 of IL-2 secretion in mixed lymphocyte reaction (MLR)” value [1] is reported as 0.467 nM, the Kd [2] is reported as 0.66 nM and the Kd [3] is reported as 0.45 nM. The Kd [4] was 14.3 nM and the Kd [5] was 40.2 nM.
